Source: PubChem BioAssay AID485294 (National Center for Advancing Translational Sciences (NCATS), 2010)
Out of some 370,000 compounds screened, about 150 (0.041%) were called active. The shares of active, inactive and inconclusive entries below differ from those in the screen. The call rests on the fitted dose curve; in most records, active means well fitted inhibition curve with a large enough effect; inconclusive means small, poorly fitted or top-dose-only effect; inactive means flat fitted curve, though single readings scatter. Potencies of inconclusive entries are left out as doubtful fits.

Target: Beta-lactamase (Escherichia coli (strain K12)) (UniProt P00811)
Assay: qHTS Inhibitors of AmpC Beta-Lactamase (assay with detergent); further: nearly all actives have a fitted effect of over 25% in size;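 on activity change, negative = inhibition: 0% = no-compound wells and -100% = no-enzyme wells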
Details: AmpC hydrolysis of nitrocefin, absorbance 480 nm, 0.01% Triton; activity change, negative = inhibition: at 114 µM (top of the series)
Outline: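 20 mM phosphate pH 7.0 + 0.01% (detergent screen) or 0.0001% Triton X-100; 5.3 nM AmpC reagent; cpd preinc 15 min RT; nitrocefin (800 uM stock) to start; A480 q20 s × 4 min; Activity was normalised to no-enzyme and no-compound control wells.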
Potency means the concentration at half of the fitted maximal effect; tags describe the fitted curve by direction and shape.

UniProt P00811, sequence (P00811 whole entry, looked up): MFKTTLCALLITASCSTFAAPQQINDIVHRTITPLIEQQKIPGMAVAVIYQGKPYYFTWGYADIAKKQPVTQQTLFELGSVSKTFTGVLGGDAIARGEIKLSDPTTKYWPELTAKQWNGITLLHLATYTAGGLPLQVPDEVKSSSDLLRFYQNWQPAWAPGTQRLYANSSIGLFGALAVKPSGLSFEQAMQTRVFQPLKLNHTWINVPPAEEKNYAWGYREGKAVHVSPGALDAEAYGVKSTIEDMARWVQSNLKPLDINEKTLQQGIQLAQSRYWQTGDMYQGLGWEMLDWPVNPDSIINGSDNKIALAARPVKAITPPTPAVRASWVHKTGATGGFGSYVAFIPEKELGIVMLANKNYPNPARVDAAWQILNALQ

Structure (SMILES)	activity change, negative = inhibition	Potency
O=C(CSc1ccc(-c2ccc(F)cc2)nn1)NCC1CCCO1 (stereo not given)	inactive: 0.649%	
CC(C)c1cc(C(N)=O)c(NC(=O)c2cccc(COc3ccc(Cl)cc3)c2)s1		inconclusive [inhibitor, full curve, poor fit]
c1ccc(-c2cnc(SCCN3CCOCC3)n2CC2CCCO2)cc1 (stereo not given)		inconclusive [inhibitor, partial curve, poor fit]
CCCCCN(C(=O)CCC(=O)OCCOc1cccc(Cl)c1)c1c(N)n(CCCC)c(=O)[nH]c1=O		inconclusive [inhibitor, full curve, poor fit]
COc1ccccc1CCN1CCCC(CN(C)C(=O)c2ccco2)C1 (stereo not given)		inconclusive [inhibitor, full curve, poor fit]
Nc1ccc(Nc2cc(O)c3ncccc3c2)cc1	inactive: -4.05%	
O=C(O)/C(=C\c1ccc(-c2ccccc2[N+](=O)[O-])o1)c1ccccc1		inconclusive [inhibitor, partial curve, poor fit]
O=c1[nH]c2ccc([N+](=O)[O-])cc2nc1/C=C(\O)c1ccccc1		inconclusive [inhibitor, partial curve]
O=C(CCCN1CCC(O)(c2ccc(Br)cc2)CC1)c1ccc(F)cc1		inconclusive [inhibitor, full curve, poor fit]
CCN(CC)c1ccc(NC(=O)c2cnc3ccccn3c2=O)c(C)c1		inconclusive [inhibitor, single point]
CCC(=O)Nc1cc2nn(-c3ccc(C)cc3)nc2cc1C		inconclusive [inhibitor, single point]
COc1ccc(CNC(=O)COC(=O)CO/N=C(\C)c2ccc3c(c2)OCO3)cc1		inconclusive [inhibitor, full curve, poor fit]
CCCCc1cc(=O)oc2cc(C)cc(OCC(=O)N3C[C@H]4C[C@@H](C3)c3cccc(=O)n3C4)c12		inconclusive [inhibitor, single point]
CC(C)NC(=O)CSc1nc(Cc2cccs2)nc2ccccc12	inactive: -2.04%	
CSc1ccc(C(c2c(C(=O)O)[nH]c3ccccc23)c2c(C(=O)O)[nH]c3ccccc23)cc1		inconclusive [inhibitor, full curve, poor fit]
COc1ccc(/C=N/NS(=O)(=O)c2ccc(C)cc2)cc1OC(=O)c1ccccc1	inactive: 2.53%	
CCOc1ccc(-c2onc(C(F)(F)F)c2-c2cscn2)c(O)c1	inactive: -1.22%	
Cc1nc2c(c(C)nn2C(C)(C)C)c(C)c1CCC(=O)Nc1ccc(Br)cc1Br	inactive: -0.54%	
Cc1ccc(-c2cn(-c3ccccc3)c(=S)[nH]2)cc1C	inactive: -5.7%	
CS(=O)(=O)N1CCC(C(=O)NCC2CCCO2)CC1 (stereo not given)		inconclusive [inhibitor, full curve, poor fit]
O=C(COc1ccccc1[N+](=O)[O-])OCC(=O)N1CCC(Cc2ccccc2)CC1	inactive: 5.18%	
NC(=S)Nc1ccc2cc[nH]c2c1		inconclusive [inhibitor, full curve]
C=CCN(CC=C)C(=O)c1ccc(OC2CCN(S(=O)(=O)N(C)C)CC2)cc1	inactive: 1.42%	
COc1ccc2[nH]c(=O)c(CN(Cc3cccnc3)C(=O)Nc3ccccc3)cc2c1		inconclusive [inhibitor, partial curve, poor fit]

Structure (SMILES)	activity change, negative = inhibition	Potency
CSc1nc(SCC(=O)NC(c2ccccc2)c2ccccc2)c2c3c(sc2n1)CN(C)CC3	inactive: -8.27%	
COc1ccc(C(C(=O)NC(C)(C)C)N(C(=O)CCC(=O)Nc2cc(C)on2)c2cccc(F)c2)cc1 (stereo not given)		inconclusive [inhibitor, full curve, poor fit]
COc1ccc(CCNC(=O)C2c3ccccc3C(=O)N2CCC(C)C)cc1OC (stereo not given)	inactive: -1.19%	
COc1cccc(N2CCN(C(=O)CN(c3ccc(C)cc3)S(=O)(=O)c3c(C)n[nH]c3C)CC2)c1		inconclusive [inhibitor, full curve, poor fit]
CC1(C)Cc2ccccc2C(/C(C#N)=N/O)=N1	inactive: 3.57%	
COC(=O)c1ccc(COC(=O)CNC(=O)c2ccc(C)s2)cc1		inconclusive [inhibitor, partial curve, poor fit]
CCOC(=O)C1CCN(C(=O)CNS(=O)(=O)c2ccc(Br)s2)CC1		inconclusive [inhibitor, full curve, poor fit]
CCc1ccc(NC(=O)c2ccnc(C(C)(C)C)c2)cc1		inconclusive [inhibitor, partial curve]
CCn1c(=S)sc2c(=O)n(CC(=O)Nc3ccc(C(C)=O)cc3)c(C)nc21	inactive: -6.37%	
Cc1ccccc1CNC(=O)c1ccc(CN2CC(=O)N3CCCCC3C2=O)cc1 (stereo not given)	inactive: -1.35%	
CCc1nnc2c3ccccc3nc(N3CCN(c4cc(C)ccc4C)CC3)n12	inactive: 13.4%	
O=C(Nc1nnc(SCc2ccccc2Cl)s1)c1cccc([N+](=O)[O-])c1		inconclusive [inhibitor, partial curve, poor fit]
c1ccc(C(c2ccccc2)N2CCN(c3ccc4ccccc4n3)CC2)cc1		inconclusive [inhibitor, full curve, poor fit]
COc1cccc(NC(=O)c2ccccc2)c1	inactive: -5.75%	
c1ccc(CSc2nnc3c4ccccc4c4ccccc4c3n2)cc1		inconclusive [inhibitor, partial curve]
O=C(c1ccco1)N(CCC(c1ccccc1)c1ccco1)Cc1ccco1 (stereo not given)	inactive: -8.28%	
C=CCN=C1NN=C(c2ccc3c(c2)OCCO3)CS1		inconclusive [inhibitor, partial curve]
CC(C)N1C(=O)CCC1C(=O)NCc1ccccc1Cl (stereo not given)		inconclusive [inhibitor, partial curve]
COC(=O)C1=C(c2ccc(OC)cc2)OC(=O)C1(C)C	inactive: -5.77%	
CCn1c(SCC(=O)Nc2cc(C)on2)nc2c1c(=O)n(C)c(=O)n2C		inconclusive [inhibitor, full curve, poor fit]
CCCCN(C(=O)c1ccc(N2CCCC2=O)cc1)c1c(N)n(CCC)c(=O)[nH]c1=O		inconclusive [inhibitor, full curve, poor fit]
Cc1ccc(C)c(OCCC(=O)OCC(=O)Nc2ccc(Cl)cn2)c1		inconclusive [inhibitor, partial curve, poor fit]
CC(C)(C)c1ccc(-n2ncc3c2CCCC3NC(=O)C2=NNC(=O)CC2)cc1 (stereo not given)		inconclusive [inhibitor, partial curve, poor fit]
COc1ccccc1NS(=O)(=O)c1ccc(NC(=O)c2nc3nc(C)cc(C(F)F)n3n2)cc1		inconclusive [inhibitor, single point]

Structure (SMILES)	activity change, negative = inhibition	Potency
CCCCn1c(N)c(Sc2ccc(C)cc2)c(=O)[nH]c1=O		inconclusive [inhibitor, partial curve]
O=C(NCCc1ccccc1)c1cc2ncc(Br)cn2n1	inactive: -9.67%	
CCn1c(SCC(=O)NCCOC)nc2sc3c(c2c1=O)CCCC3		inconclusive [inhibitor, full curve, poor fit]
O=C(CSc1ccc(-c2ccccc2)nn1)N1CCCCC1	inactive: -4.5%	
O=C(NCCN1CCOCC1)c1ccc(NS(=O)(=O)c2cccc([N+](=O)[O-])c2)cc1		inconclusive [inhibitor, full curve, poor fit]
Cc1cc2ncn(C(=O)N3CCCCCC3)c2cc1C	inactive: 0.905%	
NN=C(N)N		inconclusive [inhibitor, full curve, poor fit]
COc1ccc(-c2nnc3n2N=C(C)CS3)cc1OC		inconclusive [inhibitor, full curve, poor fit]
COc1ccc(NC(=S)NCc2ccccc2)c(OC)c1	inactive: -3.06%	
COc1ccc(S(=O)(=O)NC2CCCCCC2)c(OC)c1		inconclusive [inhibitor, single point]
COc1ccc(F)cc1S(=O)(=O)N1CCC2(CC1)OCCN2S(=O)(=O)c1cccs1		inconclusive [inhibitor, full curve, poor fit]
O=C(Nc1ccncc1)Nc1ccc(Cl)cc1Cl		inconclusive [inhibitor, full curve]
CCOc1ccc(NC(=O)C2CCCN(c3nnc(-n4c(C)ccc4C)s3)C2)cc1 (stereo not given)	inactive: 21%	
Cc1cccc2c1-c1sc(C(=O)Nc3cccnc3)cc1CO2		inconclusive [inhibitor, full curve, poor fit]
Nc1nonc1-n1nnc(C(=O)N/N=C/c2ccc(OCc3ccccc3F)cc2)c1CN1CCCCC1		inconclusive [inhibitor, full curve, poor fit]
CC1CCC(=NNC(=O)Cc2cccn2C)CC1 (stereo not given)	inactive: -10.2%	
CC1CCc2c(sc(NC(=O)c3ccco3)c2C(=O)O)C1 (stereo not given)	inactive: 1.43%	
CCOCCOC(=O)C1=C(C)NC(=O)NC1c1ccc2c(c1)OCO2 (stereo not given)		inconclusive [inhibitor, partial curve]
COc1ccccc1C(=O)NC(=S)N1CCc2ccccc21	inactive: 1.18%	
COc1ccccc1CN1CCN(C(CC(C)C)c2nnnn2Cc2cccs2)CC1 (stereo not given)	inactive: -4.69%	
CCN(CCCNC(=O)C1CCN(S(=O)(=O)CC)CC1)c1cccc(C)c1		inconclusive [inhibitor, partial curve]
O=C(NCCc1ccccc1)C1CC(c2ccccc2O)=NO1 (stereo not given)		inconclusive [inhibitor, full curve, poor fit]
